# The supplement of paper PMC10126150
# Sequences with one replicate were seen in a single cluster, so their values are uncertain.
# System: ATP
# Experiment: switch fluorescence ratio, 500 uM ATP over buffer (Cy3 cluster intensity, sum of 5 cycles each) (fold (ratio)); higher = stronger signal-on switching upon ATP binding; sequences stand for … in TCGTCGGCAGCGTCAGATGTGTATAAGAGACAGTTTTTTTTTTTTTTTTTTTTTTTTT…TC
# Details: aptamer strand: ATP DNA aptamer (quencher-CACCTGGGGGAGTATTGCGGAGGAAGG + anchor), 100 nM annealed; ATP concentration: 500 uM; one replicate
# In short: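 Exposure to 500 uM ATP lasted 15 min at 22 °C before imaging, and a selection-buffer image was taken beforehand, for Cy3-labelled switching-strand clusters on a modified Illumina MiSeq flow-cell annealed to 100 nM quencher-labelled ATP aptamer. Five buffer/ATP cycles were run with NaOH stripping and re-annealing between them. The fluorescence ratio per cluster is summed target-cycle over summed buffer-cycle Cy3 intensity, averaged per switch-domain sequence. Clusters outside 100-1000 RFU were excluded.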
row,Sequence,switch fluorescence ratio
1,GAATTGGCT,0.898
2,TTTGGGCGGC,1.02
3,AGACGGGAGC,1.01
4,AGTTTGATTA,1.03
5,AGCGCGACCG,1.02
6,TAGACTCTTC,1.02
7,GTGTTACACG,0.938
8,CAGATAAGTT,0.982
9,TATTATTTAT,0.985
10,GGGGAGATTT,0.996
11,CATCTTACCG,1.01
12,ATATGCCAAT,1.03
13,GGCGGATTCT,0.986
14,GGCAACTGT,1
15,ATTTTGTGTC,0.967
16,CTCGTAGGAA,1.03
17,ACAACCCCTA,1.14
18,AATTCGTGCT,0.978
19,GGTGTCCTTC,1.03
20,TAATGCTATC,1.03
21,CATGTCGGTA,0.987
22,CTAAGCTTGG,1.06
23,ATACTGGATC,1.05

row,Sequence,switch fluorescence ratio
1,GTCTACGAGA,1.03
2,CAGTGAGCTG,0.969
3,ATGGAGTCAA,1.36
4,CGAGGTGGCC,1.02
5,ACGTTTTCA,1.04
6,TTAATATTAG,0.98
7,GCACATGAGC,0.953
8,AGACGTGATT,0.989
9,CAGAAGGATT,1.02
10,CACCGGTAAA,1.07
11,ACTGGGAGCA,1.04
12,CTGCTATGCG,1.01
13,AGTAGCACGG,1.04
14,CGCGCTCTGT,1.01
15,CAACGGCCTG,1.01
16,GTTACTAAGC,1.01
17,ATATTATCGA,1.02
18,CGGGACATTT,0.972
19,AGAGATGCGT,0.969
20,CTGTCTGCTA,1.21
21,AGTTTAGTC,0.982
22,TAAAAGAAT,1.03
23,CTCAACCGAT,1.03

row,Sequence,switch fluorescence ratio
1,TGGTTGCGA,1.08
2,ACTGATACGG,1.22
3,CTTCGTAGCT,1.14
4,AAGCTTTCAT,0.971
5,TGCTATTAA,0.956
6,TCCGCGCCTA,1.31
7,ACCGAGGTG,1.2
8,TTCGCGAG,1.04
9,TCTGATTTCG,1.01
10,AGTTGTACTT,1.03
11,TGTAGCCTCT,1.01
12,ATGCCGTTAT,1.01
13,AGCAATGTCG,1.14
14,ATTCCTGGCA,1.15
15,GAGCGATTGT,1
16,TACAATTACA,1.06
17,TTGCATAGAA,0.997
18,GTGGGATACG,1
19,TTGGCTTCGT,0.983
20,TCAACAGGGC,1.05
21,CATGGTTATC,0.998
22,TGAGTTTCAA,0.951
23,ATGTGCAGTC,1.03

row,Sequence,switch fluorescence ratio
1,GTTCACCCCG,1.31
2,TGGGCCGTTC,0.959
3,CATTGAGGAG,0.949
4,CACGGGGACC,1.01
5,GATCTGACTG,1
6,AAGTATAAGT,0.981
7,ACGGAATGCC,2.2
8,CTCAGTGGCT,0.982
9,AGATGGCAGA,0.975
10,GAGATAGTCA,1.05
11,TCTGTAGTA,1.06
12,GTCATGTTGT,0.996
13,CGATGTGCGT,1.02
14,AATCGGCGGT,0.998
15,TAACCAAAAA,1.04
16,TTCAGTGAAA,0.991
17,CCGATGGCTG,1.92
18,GTAGCTCAGT,1
19,ATCGAATCTT,0.947
20,CCTCTATTTC,1.68
21,TTCCGAAAGT,1.06
22,TCGAGTACCC,1.06
23,TCGGCGATGG,1.01

row,Sequence,switch fluorescence ratio
1,AGCGGAGGA,0.999
2,ATCGTTAAAG,0.991
3,CGTTTTTAGC,0.986
4,ATCTGCATTC,2.48
5,AGACGGCGCA,1.03
6,GGCCCCGTCC,1.08
7,CATTGACTAT,1.04
8,ATTAGTCTGG,1.02
9,AGTGCTTCAA,1.03
10,AATTCACTCT,1.02
11,GCTCTTAGTA,1
12,GGTCTTGTTC,0.932
13,GTCTCTACGG,0.979
14,TGGACTCAGT,0.955
15,CCCAAGGGCT,1.04
16,GACGGTGGAA,1
17,GCGTTATGTT,1.02
18,CGGGAGCGGC,1.07
19,CTTCGTCGGA,0.947
20,GACTCTCAT,1.03
21,GATGTGGT,0.979
22,TGCTCTGACG,0.996
23,ACGTGTTGCA,1.02

row,Sequence,switch fluorescence ratio
1,AGTGATGAAT,0.994
2,GTGGACGATC,1.02
3,TACAGACGGA,0.883
4,CTTGAGAAGT,1.01
5,TGCCGGGGTA,0.961
6,TGAATGTAAA,1.02
7,CATGTCTTGG,1.06
8,GAGGTCCGTG,1.08
9,GTTTCTATTC,1
10,CGCGCATACG,2.92
11,TATAAGGACG,0.955
12,TGTGAACTTC,0.963
13,TCGTACCACC,1.21
14,CATTATAAAA,1.03
15,AAATAGTATC,0.977
16,CCAGGCATGG,1.02
17,ACCCTTGGTA,0.977
18,TCCTCCAGTT,1.01
19,GGACGCTTAT,1.29
20,CATAGTGGCA,0.975
21,CGAGCCGTAA,0.929
22,GGACATTTTA,1.02
23,ACAGATGCGA,1.03

row,Sequence,switch fluorescence ratio
1,GGCGGGCCGA,1
2,TTGCAAATGT,0.996
3,GGATCAGTCG,1.04
4,CGGTAAAAT,1.01
5,TCTAGATATT,0.981
6,TGGGGTGTCG,1.05
7,TAAAGGAGC,0.966
8,ATGAGCGCTC,1.03
9,CGTGCCGGTC,1.06
10,CTTAGCTCCA,1.02
11,TACCTGTCTG,1.05
12,TGCTCACACA,0.98
13,CCCGACAAAT,1.2
14,CCCCCGACAT,3.88
15,TGGGATCGAA,0.98
16,GCGCACTCTC,2.12
17,AATTTTGGG,1
18,CGTGATATGT,0.955
19,CCCCGTGCGT,1.3
